Measured values reported in PubChem BioAssay AID652104 (National Center for Advancing Translational Sciences (NCATS), 2013).
Hit rate of the full screen: of about 410,000 compounds, about 7,200 (1.8%) were called active. Inconclusive means that the source gave no clear call. Such entries were picked first, then a sample of the others. The call rests on the fitted dose curve; in most records, active means well fitted activation curve with a large enough effect; inconclusive means small, poorly fitted or top-dose-only effect, or another doubt; inactive means no such curve, though single readings can be large or run the other way. Potencies beside an inconclusive call are fits to weak or partial responses and may not hold up.

Assay: qHTS of TDP-43 Inhibitors; further: nearly all actives have a fitted effect of over 50% in size; on growth rescue (activation): % of control where 0% means no effect
Conditions: TDP-43 expressing yeast growth rescue, BacTiter-Glo, 24 h; growth rescue (activation): at 46.1 µM (top of the series) unless noted
Procedure, shortened: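 Yeast expressing TDP-43 (pregrown in raffinose, seeded at OD600=0.02 in galactose medium) exposed to compounds 24 hr at 30 deg C. Growth read by BacTiter-Glo luminescence; rescue of toxicity appears as increased signal.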
Potency means the concentration at half of the fitted maximal effect; tags describe the fitted curve by direction and shape.

Potency, inconclusive:
O=C(NCCCSc1ccccc1)c1cnc(Cl)c(Cl)c1 14.1 µM [activator, partial curve, poor fit]
Cc1ccccc1-c1cc2nc(NCc3ccc(N(C)C)cc3)n(C)c(=O)c2s1 3.16 µM [activator, partial curve]
Cc1noc(-c2ccc(N3CCCCC3C)c([N+](=O)[O-])c2)n1 (configuration not stated) 11.2 µM [activator, single point]
CCCCNC(=O)C[C@@H]1C[C@@]2(C(=O)OC)CC(C)(C)CC=C2N(Cc2cccc3ccccc23)C1=O 0.316 µM [activator, full curve, poor fit]
CCOC(=O)/C(=N\Nc1ccccc1Cl)N1CCN(c2ccccc2OC)CC1 14.1 µM [activator, partial curve]
Cc1ccc(-c2cc(-c3ccccc3)nc(N(C)N)n2)cc1 4.47 µM [activator, full curve, poor fit]
CC(=O)C1=CCC(c2ccccc2)N(S(=O)(=O)c2ccc(C)cc2)C1 (configuration not stated) 3.16 µM [activator, partial curve]
CN(C)C=Nc1nonc1-c1ccc(Cl)cc1 11.2 µM [activator, partial curve]
COC(=O)[C@]12CCCCC=C1N(Cc1ccc(Cl)cc1Cl)C(=O)[C@H](CC(=O)NCCCN1CCCC1=O)C2 28.2 µM [activator, partial curve, poor fit]
CCC(=O)N1CCc2cc(CNS(=O)(=O)c3ccccc3F)ccc21 15.8 µM [activator, partial curve]
Clc1cc(Cl)c(OCc2nc(-c3ccccn3)no2)cc1Cl 3.55 µM [activator, full curve]
Cc1cc(C)cc(NS(=O)(=O)c2ccc3[nH]cc(C(=O)N4CCCCC4)c(=O)c3c2)c1 6.31 µM [activator, single point]
CN(Cc1ccccc1F)C(=O)c1ccccc1Sc1ccccc1C#N 31.6 µM [activator, single point]
CCCCCC(=O)N1C[C@@H](O)[C@H](n2cc(C3CC3)nn2)C[C@@H]1c1ccc(C)cc1 0.316 µM [activator, partial curve, poor fit]
O=C(Cc1ccccc1)Nc1nc2ccccc2s1 14.1 µM [activator, partial curve]
O=c1c2c3c(sc2nc2n1CCCC2)CCCCC3 31.6 µM [activator, single point]
O=C(/C=C/c1ccc(Cl)cc1Cl)NCCSc1ccccc1 8.91 µM [activator, partial curve]
COc1ccccc1C1=NOC(COC(=O)c2ccc(Br)cc2)C1 (configuration not stated) 1.58 µM [activator, full curve]
OCc1cn(-c2ccccc2)nc1-c1ccc2c(c1)OCCO2 25.1 µM [activator, partial curve]
COc1ccccc1-c1noc(COC(=O)c2ccc(Br)o2)n1 12.6 µM [activator, single point]
C[C@H](NC(=O)[C@@H]1CCC(=O)N1Cc1ccco1)c1ccccc1 35.5 µM [activator, single point]
CCOC(=O)c1csc(-c2ccc([N+](=O)[O-])cc2)n1 11.2 µM [activator, partial curve]
CN(C)Cc1csc(NC(=O)Nc2cccc(C(F)(F)F)c2)n1 0.562 µM [activator, full curve, poor fit]
Cc1ccc(NC(=O)COc2coc(CN3c4ccccc4CC3C)cc2=O)c(C)c1 (configuration not stated) 35.5 µM [activator, single point]
COc1ccc(OCc2cc(C(=O)NC(C)c3csc(C)n3)no2)c(Cl)c1 (configuration not stated) 14.1 µM [activator, single point]
Cc1ccc(C)c(NC(=O)CSc2nnc(NC(=O)Nc3ccccc3)s2)c1 3.55 µM [activator, full curve, poor fit]
COc1ccc(/C=N/n2c(C3CCCCC3)n[nH]c2=S)c(OC)c1 35.5 µM [activator, single point]
CCN(C1CCCCC1)S(=O)(=O)c1cn(C)c(=O)n(C)c1=O 5.62 µM [activator, single point]
Cc1nn(-c2ccccn2)c2c1C(c1ccsc1)C1=C(CCCC1=O)N2 (configuration not stated) 25.1 µM [activator, partial curve]
Cc1ccc(CCNC(=O)c2oc(=O)c3ccccc3c2-c2ccc(C)cc2)cc1 6.31 µM [activator, single point]

Potency, active:
Cc1ccc2ccc(C(Nc3ccccc3)c3ccc(Cl)cc3)c(O)c2n1 (configuration not stated) 5.62 µM

Potency, inactive:
COc1ccccc1Nc1nc2ccc(C)cc2cc1C#N
CCSc1nc(N2CCOCC2)c2c(c1C#N)CC(C)(C)N(C)C2
COc1ccccc1C(=O)Nc1ccc(S(=O)(=O)Nc2onc(C)c2C)cc1
COc1cc(OC)cc(-c2nc3nc(C)c(CCC(=O)Nc4ccccc4)c(C)n3n2)c1
CC(=O)c1ccc(N2CCN(C(=O)Nc3cn(CC(C)C)c(=O)c4ccccc34)CC2)cc1
O=C(OCc1nnc(-c2ccc(Cl)cc2)o1)c1ccc(O)cc1
CCc1ccc(NC(=O)Cn2c(C(=O)OC)cc3oc(C)cc32)cc1
O=C(CSc1nc(-c2ccco2)nc2cc(=O)[nH]n12)Nc1ccc(F)cc1

Growth rescue (activation), inconclusive:
CS(=O)(=O)c1ncc(Cl)c(C(=O)N(Cc2ccc(Cl)cc2)Cc2ccco2)n1 -58.2% [activator]
C=C1C(=O)C23CCC4C(C)(C(=O)OC)CCCC4(C)C2CCC1(O)C3 (configuration not stated) -91.7% [activator]
Cc1cccnc1Nc1nc(-c2ccccn2)cs1 -65.7% [activator]
